Source: the RNAGym collection of RNA variant scans (doi:10.1093/nar/gkz1192)
Read counts are not given, so values of variants with three or more changes are uncertain.

B1: CPEB3 Ribozyme (parent)
chain: UAACAGGGGGCCACAGCAGAAGCGUUCACGUCGCAGCCCCUGUCAGAUUCUGGUGAAUCUGCGAAUUCUGCUGUAUAUCUC

Variants of: B1
Test: self-cleavage, relative activity (ratio to wild type); higher = more cleavage; in vitro, sequencing
Summary of the method: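 CPEB3 self-cleaving ribozyme mutant libraries were made by rounds of error-prone PCR, barcoded, and transcribed in vitro with T7 RNA polymerase for 5 hours at 37°C. Cleavage occurred during transcription and a 15 min DNase I step before EDTA stop. RNAs were reverse transcribed with template switching and Illumina-sequenced, with DNA sequencing mapping barcodes to variants. Relative activity is the variant's cleaved/total read fraction divided by wild type's (minimum 5 reads), averaged across three batches.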

Variant | self-cleavage
U1A G30A A57G | 0.19
U1A A20U U67A U69C U72A | 0.26
U1A A20G U31C A45G U69A | 0.13
U1A A15G A28G U31C U48C A56G | 0
U1A A18G U51A U54A U72G U80C | 0.69
U1A U41A U54C G63A | 0.39
U1A A5U A20U U26C A64U | 0.22
U1A U25C U78C | 0.1
U1A A28G U41A A45G | 0.4
U1A A21G U41A A47G A65G | 0.2
U1A G30C U69A A77G U80C | 0.08
U1A C40U A65U U72A U80C | 0.16
U1A U26C A35G U49A U72C | 0.77
U1A A15U A18G U48C A64G C68U U78A | 0.11
U1A A18G A20G A28G U80G | 0.33
U1A C11G U41C U48C U69C | 0.23
U1A A35G A45G A47G G52C U67C | 0.68
U1A A5U U25C U26C U72C | 0.09
U1A A15U A47G U54A U58A | 0.17
U1A U41C A65G | 0.56
U1A A20G A47G A65G U67C | 0.15
U1A G9U A13G A56U U74A | 0.07
U1A A13G U31C U51G | 0.57
U1A A13U U25C A28G A47G A57G | 0.09

Variant | self-cleavage
U1A G8A G33U G52C A57G U60C U69C | 0.05
U1A A13G U31C U69A | 0.18
U1A G16U A35U U48C U72A | 0.1
U1A A5U A45G | 0.58
U1A U25A A28G U69C | 0.25
U1A A18G A35G C39U U43C U49C U51A | 0.46
U1A A28U U60A | 0.2
U1A U25A C34U U43C U58C A64U | 0.07
U1A A5U A18G A20U U31A A56U A57G | 0.1
U1A U41C A56G U60A U72C | 0.16
U1A A13G C44A A56U | 0.14
U1A U41A U51G A64G | 0.72
U1A C11U A18U U31A A45U U80C | 0.06
U1A G8U G10A U26C U60C U78C | 0.31
U1A C11A A28G A57G A64U U72C | 0.09
U1A A18U U41C A45U A77G | 0.18
U1A U25A A35G | 0.07
U1A A13C G19C A20U C39A U67G | 0.05
U1A U41G U60C U66A A75G U76C | 0.06
U1A A18G A28G U49C | 0.27
U1A U26A C44A | 0.44
U1A U25C G42C | 0.33
U1A A13U A20G U26C | 0.12
U1A A13G G16A A57G U58C A75G A77G | 0.05

Variant | self-cleavage
U1A G7U G52A | 0.4
U1A A18G A35G U67C U74C | 0.16
U1A U43A U58C | 0.77
U1A G33U C62U A77U | 0.2
U1A U26C A45C G46A U78A | 0.63
U1A A28G U69C | 0.23
U1A U41C U54G | 0.6
U1A C23U G73A | 0.84
U1A A13U U80A | 1.34
U1A U25C U72C | 0.25
U1A G52A C68U | 0.95
U1A G19U A47G U48A U80C | 0.43
U1A U25C A35G A47G | 0.22
U1A A13G C14U A18G A28U A35U U49C | 0.06
U1A U25A U41A U54C U74A | 0.26
U1A G8U A21G U25C A28G U69A U74C | 0.05
U1A C4G A75G | 1.14
U1A U41A U54A U58C | 0.21
U1A C23G U31C A65G | 0.09
U1A A56G U58C | 0.32
U1A A20G U31A G42A U66C U67A | 0.11
U1A U25C U31G U69C A75U U80C | 0.11
U1A A18G A47G U49C | 0.44
U1A C38G U49C G70U | 0.08

Variant | self-cleavage
U1A A20U U60C C62U | 0.1
U1A A15G U31C U43A U49C U72C | 0.44
U1A A35U U72G | 0.41
U1A A18U A28U U60C U69A | 0.25
U1A U26C C32A U60A U72G | 0.08
U1A A45G U78A | 0.57
U1A A56G A64G U67A U74G | 0.35
U1A G9A G10A U25C U31C U43C A75G | 0.13
U1A A20G A35C U54C | 0.46
U1A U26C A35U A45U U51C A56G | 0.13
U1A A20U U72A | 0.18
U1A A20G A28U A35G A56U U67C | 0.73
U1A A20G U49C U72C | 0.21
U1A G19A U26A U54C A57G A64G A77G | 0.04
U1A U41C U58C U74A A77U | 0.61
U1A U26C U48C G53A U80A | 0.14
U1A U41C U49C U51C A57G U67C | 0.2
U1A C11G U26A C40U U41C A47G U69C | 0.13
U1A U41C U72C | 1.03
U1A A18G A20G A35U C79U | 0.35
U1A G16A U51C A57G | 0.16
U1A A18G A28G U49C A77U | 0.08
U1A U49C A64G | 0.3
U1A A15G A28G U58A | 0.29

Variant | self-cleavage
U1A C14U A45U G52A | 0.81
U1A A18U C39U U48C U49G A75U | 0.2
U1A C4A A15U C32U A57U U72C | 0.32
U1A A18G U66C U74C U78A | 0.13
U1A A15G C40U | 0.25
U1A A15G A20G U26C U48A U69C | 0.35
U1A A15G U31C U72A | 0.3
U1A G9A U26C A47U U49A U72A | 0.16
U1A A20G A35G A57G | 0.82
U1A A47G A57G U76C | 0.45
U1A A20U A35C A75C C81A | 0.38
U1A C32A U54A A56G U69A U78C | 0.14
U1A C11U A45G U48C U51C A65U U72A | 0.06
U1A G7A A20U U25C U41A U66C U78C | 0.04
U1A A20C U41C U67C U72C | 0.25
U1A A13G U60C C79U U80C | 0.8
U1A A20C U25C A45G A56G | 0.34
U1A C11U A20G | 0.34
U1A A64G U69C G70C | 0.32
U1A A15U A18G U48A A56U | 0.21
U1A U26C A28G | 0.26
U1A A15G A75G | 0.73
U1A C44U U60A C62U A64U U72C U78C | 0.05
U1A U25C A35G U69G | 0.11

Variant | self-cleavage
U1A A35G U41G U76A | 0.24
U1A A18U A45G U54C | 0.12
U1A A45U U58C U60C | 0.17
U1A A13U G46U U51C A56G U72G | 0.41
U1A G9A A57G | 0.24
U1A A15C G52U U76C U80C | 1.24
U1A A20C U26C C40A A64G U72A | 0.12
U1A G9C A15U U76C | 0.07
U1A C11G C12U A56G U69C | 0.12
U1A C29U U54A U67A A75G | 0.07
U1A A13G A35C A64G | 0.43
U1A C23A U26C A28U U54C U67C U78C | 0.09
U1A A28G U49C | 0.18
U1A A13U A75U | 1.24
U1A A28C C81A | 0.65
U1A A57G A77U | 1.15
U1A U25C A47G A65U U66C | 0.21
U1A G30C U31C A45G | 0.15
U1A A15G A21U U54C A64G | 0.44
U1A C12U A28G U41C A57G | 0.83
U1A U31C U54C A65G | 0.1
U1A A18C A21U A64G U67C U69A | 0.17
U1A A5U A65C | 0.37
U1A A15U A47U U60A | 0.12

Variant | self-cleavage
U1A C27U G36C C40U A65G G70A | 0.13
U1A A18U A45G A65G | 0.17
U1A C14U U25G A35U U49C | 0.06
U1A G16A U41C U51C U69C C71U | 0.2
U1A C44U G53A U58G | 0.1
U1A U25C U31C U72C | 0.07
U1A A13U A15G A20G G22A U51A U60A | 0.2
U1A G6A C12A A13G U25C U41A G70A | 0.06
U1A A13U U25C | 0.13
U1A A56G U74A A75G | 1.05
U1A A20G A35G U48C U49C | 0.2
U1A A13G A15C C32A C37A C44A U80C | 0.06
U1A G6A G9A U48C U54C A64G U66C | 0.06
U1A C11U A18G U69A A77U | 0.12
U1A G6A A21G A35G U58C U76A | 0.08
U1A G52A U76C | 1.11
U1A U41C U74C | 1.08
U1A A28G U54A | 0.54
U1A A13U A20G A21G C32U U48C A56U | 0.06
U1A G9A U60C A64U | 0.15
U1A U25A C38U C39A A65G A77G | 0.05
U1A A5U C12U C14U | 1.21
U1A A45G U60A U67A U74C | 0.24
